Data from the supplement of paper PMC8728848.
The list shows a part of the results.

Key:
Assay in all cases: glycan array binding signal (z-score within array); higher = stronger binding
Details in all cases: glycan notation: IUPAC condensed, linker removed
Fuc(a1-2)Gal = biological target: Fuc(a1-2)Gal
Procedure, shortened: (§1)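 From the Consortium for Functional Glycomics database, 3228 arrays were curated, keeping only those whose protein sequence was available. Binding is given as a within-array Z-score averaged across arrays sharing a protein sequence and across linkers. Negative Z-scores can be read as non-binding.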

Fuc(a1-2)Gal(b1-3)GalNAc = biological target: Fuc(a1-2)Gal(b1-3)GalNAc
Procedure, shortened: as §1

[1] = biological target: Fuc(a1-2)Gal(b1-3)GalNAc(b1-3)Gal
Procedure, shortened: as §1

[2] = biological target: Fuc(a1-2)Gal(b1-3)GalNAc(b1-3)Gal(a1-4)Gal(b1-4)Glc
Procedure, shortened: as §1

[3] = biological target: Fuc(a1-2)Gal(b1-3)GalNAc(b1-4)[Neu5Ac(a2-3)]Gal(b1-4)Glc
Procedure, shortened: as §1

Fuc(a1-2)Gal(b1-3)GlcNAc = biological target: Fuc(a1-2)Gal(b1-3)GlcNAc
Procedure, shortened: as §1

[4] = biological target: Fuc(a1-2)Gal(b1-3)GlcNAc(b1-2)Man(a1-3)[Fuc(a1-2)Gal(b1-3)GlcNAc(b1-2)Man(a1-6)]Man(b1-4)GlcNAc(b1-4)GlcNAc
Procedure, shortened: as §1

[5] = biological target: Fuc(a1-2)Gal(b1-3)GlcNAc(b1-3)Gal(b1-4)Glc
Procedure, shortened: as §1

[6] = biological target: Fuc(a1-2)Gal(b1-3)GlcNAc(b1-3)[Gal(b1-4)[Fuc(a1-3)]GlcNAc(b1-6)]Gal(b1-4)Glc
Procedure, shortened: as §1

[7] = biological target: Fuc(a1-2)Gal(b1-3)[Fuc(a1-4)]GlcNAc
Procedure, shortened: as §1

[8] = biological target: Fuc(a1-2)Gal(b1-3)[Fuc(a1-4)]GlcNAc(b1-2)Man(a1-3)[Fuc(a1-2)Gal(b1-3)[Fuc(a1-4)]GlcNAc(b1-2)Man(a1-6)]Man(b1-4)GlcNAc(b1-4)GlcNAc
Procedure, shortened: as §1

Fuc(a1-2)Gal(b1-4)Glc = biological target: Fuc(a1-2)Gal(b1-4)Glc
Procedure, shortened: as §1

Fuc(a1-2)Gal(b1-4)Glc6S = biological target: Fuc(a1-2)Gal(b1-4)Glc6S
Procedure, shortened: as §1

Fuc(a1-2)Gal(b1-4)GlcNAc = biological target: Fuc(a1-2)Gal(b1-4)GlcNAc
Procedure, shortened: as §1

[9] = biological target: Fuc(a1-2)Gal(b1-4)GlcNAc(b1-2)Man(a1-3)[Fuc(a1-2)Gal(b1-4)GlcNAc(b1-2)Man(a1-6)]Man(b1-4)GlcNAc(b1-4)GlcNAc
Procedure, shortened: as §1

[10] = biological target: Fuc(a1-2)Gal(b1-4)GlcNAc(b1-3)Gal(b1-4)GlcNAc
Procedure, shortened: as §1

[11] = biological target: Fuc(a1-2)Gal(b1-4)GlcNAc(b1-3)Gal(b1-4)GlcNAc(b1-3)Gal(b1-4)GlcNAc
Procedure, shortened: as §1

[12] = biological target: Fuc(a1-2)Gal(b1-4)GlcNAc6S
Procedure, shortened: as §1

[13] = biological target: Fuc(a1-2)Gal(b1-4)[Fuc(a1-3)]GlcNAc
Procedure, shortened: as §1

[14] = biological target: Fuc(a1-2)Gal(b1-4)[Fuc(a1-3)]GlcNAc(b1-2)Man(a1-3)[Fuc(a1-2)Gal(b1-4)[Fuc(a1-3)]GlcNAc(b1-2)Man(a1-6)]Man(b1-4)GlcNAc(b1-4)GlcNAc
Procedure, shortened: as §1

[15] = biological target: Fuc(a1-2)Gal(b1-4)[Fuc(a1-3)]GlcNAc(b1-3)Gal(b1-4)[Fuc(a1-3)]GlcNAc
Procedure, shortened: as §1

[16] = biological target: Fuc(a1-2)Gal(b1-4)[Fuc(a1-3)]GlcNAc(b1-3)Gal(b1-4)[Fuc(a1-3)]GlcNAc(b1-3)Gal(b1-4)[Fuc(a1-3)]GlcNAc
Procedure, shortened: as §1

Fuc(a1-2)Gal6S(b1-4)Glc = biological target: Fuc(a1-2)Gal6S(b1-4)Glc
Procedure, shortened: as §1

[17] = biological target: Fuc(a1-2)Gal6S(b1-4)Glc6S
Procedure, shortened: as §1

[18] = biological target: Fuc(a1-2)Gal6S(b1-4)GlcNAc
Procedure, shortened: as §1

Fuc(a1-2)[Gal(a1-3)]Gal = biological target: Fuc(a1-2)[Gal(a1-3)]Gal
Procedure, shortened: as §1

[19] = biological target: Fuc(a1-2)[Gal(a1-3)]Gal(b1-3)GlcNAc
Procedure, shortened: as §1

[20] = biological target: Fuc(a1-2)[Gal(a1-3)]Gal(b1-3)GlcNAc(b1-2)Man(a1-3)[Fuc(a1-2)[Gal(a1-3)]Gal(b1-3)GlcNAc(b1-2)Man(a1-6)]Man(b1-4)GlcNAc(b1-4)GlcNAc
Procedure, shortened: as §1

[21] = biological target: Fuc(a1-2)[Gal(a1-3)]Gal(b1-4)Glc
Procedure, shortened: as §1

[22] = biological target: Fuc(a1-2)[Gal(a1-3)]Gal(b1-4)GlcNAc
Procedure, shortened: as §1

B1: DC-ASPGR (Homo sapiens), CLC10_HUMAN (protein)
chain: LDQNSKFQRDLVTLRTDFSNFTSNTVAEIQALTSQGSSLEETIASLKAEVEGFKQERQAVHSEMLLRVQQLVQDLKKLTCQVATLNNNASTEGTCCPVNWVEHQDSCYWFSHSGMSWAEAEKYCQLKNAHLVVINSREEQNFVQKYLGSAYTWMGLSDPEGAWKWVDGTDYATGFQNWKPGQPDDWQGHGLGGGEDCAHFHPDGRWNDDVCQRPYHWVCEAGLGQTSQESHVEPKSCDKTHTCPPCPAPELLGGPSVFLFPPKPKDTLMISRTPEVTCVVVDVSHEDPEVKFNWYVDGVEVHNAKTKPREEQFNSTYRVVSVLTVLHQDWLNGKEYKCKVSNKGLPSSIEKTISKAKGQPREPQVYTLPPSQEEMTKNQVSLTCLVKGFYPSDIAVEWESNGQPENNYKTTPPVLDSDGSFFLYSRLTVDKSRWQEGNVFSCSVMHEALHNHYTQK
Fuc(a1-2)Gal
  glycan array binding signal (z-score): -0.295
Fuc(a1-2)Gal(b1-3)GalNAc
  glycan array binding signal (z-score): -0.222
[1]
  glycan array binding signal (z-score): -0.265
[2]
  glycan array binding signal (z-score): -0.221
[3]
  glycan array binding signal (z-score): 0.303
Fuc(a1-2)Gal(b1-3)GlcNAc
  glycan array binding signal (z-score): -0.121
[4]
  glycan array binding signal (z-score): -0.074
[5]
  glycan array binding signal (z-score): -0.251
[6]
  glycan array binding signal (z-score): -0.117
[7]
  glycan array binding signal (z-score): -0.295
[8]
  glycan array binding signal (z-score): -0.04
Fuc(a1-2)Gal(b1-4)Glc
  glycan array binding signal (z-score): -0.082
Fuc(a1-2)Gal(b1-4)Glc6S
  glycan array binding signal (z-score): -0.118
Fuc(a1-2)Gal(b1-4)GlcNAc
  glycan array binding signal (z-score): -0.165
[9]
  glycan array binding signal (z-score): -0.221
[10]
  glycan array binding signal (z-score): -0.205
[11]
  glycan array binding signal (z-score): -0.151
[12]
  glycan array binding signal (z-score): -0.177
[13]
  glycan array binding signal (z-score): 0.255
[14]
  glycan array binding signal (z-score): 0.094
[15]
  glycan array binding signal (z-score): -0.042
[16]
  glycan array binding signal (z-score): -0.173
Fuc(a1-2)Gal6S(b1-4)Glc
  glycan array binding signal (z-score): -0.062
[17]
  glycan array binding signal (z-score): -0.21
[18]
  glycan array binding signal (z-score): -0.268
Fuc(a1-2)[Gal(a1-3)]Gal
  glycan array binding signal (z-score): -0.287
[19]
  glycan array binding signal (z-score): -0.232
[20]
  glycan array binding signal (z-score): -0.142
[21]
  glycan array binding signal (z-score): -0.303
[22]
  glycan array binding signal (z-score): -0.222
